# Measured values taken from paper PMC4336329 (PLoS ONE, 2015).
# Hit rate of the full screen: of about 310,000 compounds, about 14,000 (4.5%) showed an effect of 50% or more. Effects have a minus sign here. The list shows a part of the results.
# Target: human ether-à-go-go-related gene (hERG) potassium channel (human, UniProt Q12809)
# Experiment: primary screen, population patch clamp on CHO cells stably expressing hERG
# 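Further: peak tail current of the secondary pulse compared with the same well before compound.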
# Chain of human ether-à-go-go-related gene (hERG) potassium channel (Q12809 whole entry, looked up): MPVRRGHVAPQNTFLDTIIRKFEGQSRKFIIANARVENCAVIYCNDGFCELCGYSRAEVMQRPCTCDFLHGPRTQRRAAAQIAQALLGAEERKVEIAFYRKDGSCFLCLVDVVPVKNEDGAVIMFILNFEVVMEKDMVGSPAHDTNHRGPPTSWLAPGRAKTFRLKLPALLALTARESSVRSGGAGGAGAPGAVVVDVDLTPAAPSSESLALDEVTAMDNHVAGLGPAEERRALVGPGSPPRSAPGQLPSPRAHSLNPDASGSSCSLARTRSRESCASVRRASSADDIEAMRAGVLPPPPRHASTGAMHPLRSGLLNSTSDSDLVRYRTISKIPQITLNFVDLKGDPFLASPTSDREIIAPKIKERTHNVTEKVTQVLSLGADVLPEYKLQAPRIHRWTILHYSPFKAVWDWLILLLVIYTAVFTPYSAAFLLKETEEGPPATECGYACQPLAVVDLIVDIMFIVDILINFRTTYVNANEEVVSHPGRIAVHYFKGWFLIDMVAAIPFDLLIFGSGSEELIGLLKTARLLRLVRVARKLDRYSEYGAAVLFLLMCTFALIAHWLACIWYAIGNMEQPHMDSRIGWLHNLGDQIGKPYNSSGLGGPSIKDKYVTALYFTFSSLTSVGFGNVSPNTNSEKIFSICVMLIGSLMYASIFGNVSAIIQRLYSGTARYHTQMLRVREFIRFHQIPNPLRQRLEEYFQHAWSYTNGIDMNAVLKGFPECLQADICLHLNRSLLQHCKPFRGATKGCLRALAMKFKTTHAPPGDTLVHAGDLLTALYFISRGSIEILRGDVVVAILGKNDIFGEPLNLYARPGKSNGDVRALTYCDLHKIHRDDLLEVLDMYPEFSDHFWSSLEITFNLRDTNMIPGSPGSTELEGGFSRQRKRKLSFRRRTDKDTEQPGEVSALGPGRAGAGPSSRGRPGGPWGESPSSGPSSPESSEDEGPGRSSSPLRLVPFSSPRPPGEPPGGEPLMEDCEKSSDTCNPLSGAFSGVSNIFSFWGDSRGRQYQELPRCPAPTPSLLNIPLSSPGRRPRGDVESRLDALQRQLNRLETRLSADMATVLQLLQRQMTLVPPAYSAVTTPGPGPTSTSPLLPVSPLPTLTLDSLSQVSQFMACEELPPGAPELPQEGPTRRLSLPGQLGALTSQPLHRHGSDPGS
row,SMILES,"hERG current change (%, negative = inhibition) at 10uM"
1,O=C(Cn1cncn1)N/N=C/c1cc([N+](=O)[O-])ccc1O,1.67%
2,O=C(NCc1nc2ccccc2[nH]1)C1=C[C@@H](c2csc3ccccc23)C[C@@H](OCCCCO)O1,-29.6%
3,CC(C)N(C(=O)CSc1nnc(CSc2ncccn2)n1C)C(C)C,32.8%
4,CCCC(=O)Nc1ccc(NC(=O)C2CC2)cn1,2.49%
5,COc1ccc(OC)c(-n2c(-c3cnccn3)n[nH]c2=S)c1,18.3%
6,COc1ccc(S(=O)(=O)NC(CC(=O)NCc2ccco2)C(C)C)cc1 (stereo not shown),-0.105%
7,CCc1c(C)sc(NC(=O)c2cc(C)no2)c1C#N,10.3%
8,COc1ccc(CCNC(=O)/C=C/c2ccc(C)cc2)cc1OC,-5.45%
9,O=C(Cn1ccc2ccccc2c1=O)NCCC(=O)N1CCN(C2CCCCC2)CC1,-2.26%
10,CN(CC(=O)Nc1c(Cl)cccc1Cl)C(=O)Cc1cccs1,2.98%
11,COc1ccc(-c2cc(C(=O)O)c3sc(N4CCCCC4)nc3n2)cc1OC,-16.6%
12,O=C(Nc1ccc(Cl)cc1)c1ccc(OC2CSC2)cc1,11.6%
13,CC12CCC(C(=O)NNC(=O)c3ccc(Br)cc3)(OC1=O)C2(C)C (stereo not shown),26.7%
14,COc1ccc(/C=C(\C#N)C(=O)NCc2ccccc2)cc1,19.4%
15,COc1ccc(-c2nnc3sc(-c4ccccc4OC)nn23)cc1,-0.411%
16,Clc1cc(Br)ccc1OCCOCCN1CCCC1.O=C(O)C(=O)O,-57.1%
17,CCOC(=O)c1cnn(CCOC(=O)c2ccccc2F)c1NC(=O)c1ccccc1F,-15.6%
18,CCOC(=O)N1CCN(C(=S)NC(=O)c2cc(Br)ccc2Cl)CC1,3.59%
19,COc1ccccc1N=C1SC(C)CN1C(=O)C1CCC1 (stereo not shown),11.2%
20,CCOC(=O)C1=C(N)Oc2cc(C)n(C)c(=O)c2C1c1ccncc1 (stereo not shown),1.5%
21,Oc1ccc(Br)cc1/C=N/Nc1nc(N2CCCCC2)nc(N2CCOCC2)n1,23.5%
22,COc1cc(CNCCN2CCOCC2)ccc1OCC(=O)NC(C)(C)C.Cl,6.17%

row,SMILES,"hERG current change (%, negative = inhibition) at 10uM"
1,COc1ccc(/C=N/NC(=O)CCCOc2ccc(Cl)cc2Cl)cc1,25.9%
2,COC(=O)C1=NN(c2ccccc2)C2(S1)S/C(=C\c1ccccc1)C(=O)N2c1ccccc1 (stereo not shown),13.3%
3,CC1(N(O)/C=C2\C=CC=CC2=O)CCCCC1=O (stereo not shown),16.1%
4,CC(=NCCO)c1c(O)n(C2CCCCC2)c(=O)[nH]c1=O,-5.36%
5,Cc1ccc(S(=O)(=O)NNC(=O)c2sccc2-n2cccc2)cc1,-21.7%
6,CCOc1ncccc1C(=O)N=C1SCCN1C(=O)c1cccnc1OCC,4.52%
7,Cc1c(C(=O)Nc2ccc3oc(-c4cccnc4)nc3c2)oc2ccccc12,-16.8%
8,CC(C)NCC#CCOc1ccc(Cl)cc1.O=C(O)C(=O)O,-22.8%
9,CCCCOc1ccc(NC(=O)CN2CCN(Cc3ccccc3)CC2)cc1,-49.4%
10,Cc1ccccc1-n1nc(C)c(N=O)c1N,23.5%
11,Cc1cc(N2CCN(c3cccc(C(F)(F)F)c3)CC2)n2ncnc2n1,-37%
12,O=C(CSc1n[nH]c(-c2ccccc2)n1)N1CCCC1,38.6%
13,O=C(CCCN=C1NS(=O)(=O)c2ccccc21)Nc1ccc(Cl)cc1,-26.3%
14,O=C(OCc1ccccc1C(F)(F)F)c1cc([N+](=O)[O-])ccc1N1CCOCC1,11.2%
15,COc1ccc(OC)c(S(=O)(=O)N2CCC(C(=O)NCc3ccncc3)CC2)c1,16.4%
16,CN(C)S(=O)(=O)c1ccc(=S)[nH]c1,24.6%
17,COc1ccc(S(=O)(=O)Nc2cc(C)cc(C)n2)c2ccccc12,3.95%
18,C/C(Cn1nc([N+](=O)[O-])cc1C)=N\NC(=O)COc1c(Cl)cc(Cl)cc1Cl,-68%
19,CCOC(=O)C1(Cc2cccc(F)c2)CCN(Cc2ccon2)CC1,3.48%
20,COc1ccccc1NC(=O)COC(=O)Cc1ccc(S(=O)(=O)N2CCCCC2)s1,-2.18%
21,O=C(CN(C(=O)c1csnn1)c1ccccc1F)NCc1ccc2c(c1)OCO2,-12.2%
22,CCCc1[nH]nc2c1C(c1cccc(OC(=O)c3ccco3)c1)C(C#N)=C(N)O2 (stereo not shown),14.9%

row,SMILES,"hERG current change (%, negative = inhibition) at 10uM"
1,C=CCn1c(O)c(N=NC(=S)Nc2cccc(OC)c2)c2ccccc21,-0.894%
2,COc1ccc(Cn2nnnc2C(c2ccccc2OC)N2CCC(C(N)=O)CC2)cc1 (stereo not shown),-8.1%
3,CCn1cc(C(=O)Nc2ccc(OC)c(OC)c2)c2cc(OC)c(OC)cc2c1=O,3.63%
4,CSc1nncc(/C(C)=N\Nc2cccc(C)c2)n1,6.47%
5,CCOC(=O)c1cnc2c(ccc3ccccc32)c1NCCO,-26.4%
6,Cc1cnc(C(=O)Nc2ccc(C(=O)N3CCCCC3)cc2)cn1,1.54%
7,CC1CCc2c(sc3nc(CN4CCOCC4)nc(NS(=O)(=O)c4cccc([N+](=O)[O-])c4)c23)C1 (stereo not shown),-28.9%
8,O=C(Nc1cccc(-c2cn3ccccc3n2)c1)C1CC1,-31.1%
9,Cc1ccccc1Cn1c(=O)n(Cc2ccco2)c(=O)c2ccccc21,2.24%
10,CN(C(=O)CSc1nc2ccc([N+](=O)[O-])cc2s1)C1CCS(=O)(=O)C1 (stereo not shown),-55.9%
11,COc1ccc(N2CCN(C(=O)C3=NNC(=O)CC3)CC2)cc1,-13.6%
12,COc1ccc(-c2cc3ccccc3n2CC(O)CN2CCC(C)CC2)cc1.O=C(O)C(=O)O (stereo not shown),-77%
13,O=C(NC(=S)Nc1ccccc1N1CCCC1)c1cccs1,7.27%
14,CNC(=O)c1ccc(CNC(=O)OCC(F)(F)F)cc1,-1.42%
15,CCCn1c(N)c(N(CCOC)C(=O)CSCC(=O)Nc2ccc(C)cc2)c(=O)[nH]c1=O,-1.05%
16,CCOC(=O)CSc1nnc(Cc2ccccc2)n1-c1cccc(Cl)c1,-37.3%
17,Cc1cc(N)ccc1N=Nc1c(C)n(C)n(-c2ccccc2)c1=O,-5.57%
18,COc1ccc(OC)c(C2C3=C(CCCC3=O)NC3=C2C(=O)CCC3)c1,2.04%
19,CC(/C=N/Nc1nc(C)cc(=O)[nH]1)=C\c1ccccc1,-41%
20,CCOc1cc(S(=O)(=O)N2CCN(S(=O)(=O)CC)CC2)c(OCC)cc1-n1cnnn1,13.2%
21,CC(C)(C)SCCNC(=O)CSCc1ccc([N+](=O)[O-])cc1,-63.1%
22,NC(=O)Cn1cc(/C=N\NS(=O)(=O)c2ccc(Cl)cc2)c2ccccc21,10.6%

row,SMILES,"hERG current change (%, negative = inhibition) at 10uM"
1,C=CCOc1c(Br)cc(/C=N/n2c(CC)n[nH]c2=S)cc1Br,2.36%
2,Cc1cc(C)n(C(=O)N(c2ccccc2)c2ccccc2)n1,9.46%
3,Cc1ccc(OCC(=O)N/N=C\c2ccc(O)c([N+](=O)[O-])c2)c([N+](=O)[O-])c1,11.4%
4,CCCC(=O)Nc1nc2ccc(NC(=O)c3ccc(Br)o3)cc2s1,1.78%
5,CCOC(=O)N1CCN(C(=O)COC(=O)c2cc(Cl)c(O)c(Cl)c2)CC1,29.4%
6,Cc1cc(=O)oc2cc(NC(=O)c3cccc(F)c3)ccc12,5.32%
7,COc1ccc(NC(=O)CC2SC(N)=NC2=O)c([N+](=O)[O-])c1 (stereo not shown),19.9%
8,CCSc1n[nH]c2nc3c(c(=O)n12)C1(CCCC1)Cc1ccccc1-3,22.5%
9,O=C(NCc1ccc(Cl)cc1)C1CCCN(S(=O)(=O)c2cnc[nH]2)C1 (stereo not shown),9.36%
10,C/C(=N\NC(=O)c1cccnc1)c1ccc(Br)cc1,-11.1%
11,CC(C)CN(C(=O)CSc1nncn1C)C1CCS(=O)(=O)C1 (stereo not shown),15%
12,CNC(=O)NC(=O)C(OC(=O)c1cccc(S(=O)(=O)N2CCCCC2)c1)c1ccccc1 (stereo not shown),-1.58%
13,Cc1cccc(C)c1OCC(O)CN1CCN(c2ccccn2)CC1 (stereo not shown),-35.5%
14,COc1ccc(N2C(=O)CC(NCc3cccc(F)c3)C2=O)cc1 (stereo not shown),-13.3%
15,COc1ccccc1C(=O)NCC(=O)OCC(=O)Nc1cccc(S(=O)(=O)N2CCCCCC2)c1,-16.9%
16,CC1=C(C(=O)N(C)C)C(c2cccc(Cl)c2)NC(=O)N1 (stereo not shown),2.6%
17,COc1ccc(C[C@@H]2CN3C(=NC[C@@H]3C)N2C[C@H](C)NC(=O)c2ccc(C)c(Br)c2)cc1,-74.8%
18,COc1ccccc1N(CC(=O)NC1CCCC1)C(=O)c1csnn1,4.43%
19,O=C(CN1C(=O)c2ccccc2C1=O)NCc1ccc(F)cc1,24.3%
20,Nc1ccc(Br)cc1C(=O)O,-8.28%
21,Cl.O=C(O)/C=C/c1ccc(Cn2ccnc2)cc1,-9.79%
22,COC(=O)CNC(=O)CSc1nc2sc(-c3ccccc3)cc2c(=O)n1-c1ccccc1,0.814%
